Here are results for 50 compounds from PMC6919601, “Identification of Plasmodium dipeptidyl aminopeptidase allosteric inhibitors by high throughput screening” (PLoS ONE, 2019).

Where “and” joins values, the source holds several entries; their conditions need not be identical. Equal entries are not always repeated. Hit rate of the full screen: of about 110,000 compounds, about 230 (0.21%) showed an effect of 50% or more. Some of the results follow.
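Note: 30 min substrate incubation versus DMSO and 10 µM JCP410 controls.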

Sequence of DPAP1 (Q8IIJ9 whole entry, looked up): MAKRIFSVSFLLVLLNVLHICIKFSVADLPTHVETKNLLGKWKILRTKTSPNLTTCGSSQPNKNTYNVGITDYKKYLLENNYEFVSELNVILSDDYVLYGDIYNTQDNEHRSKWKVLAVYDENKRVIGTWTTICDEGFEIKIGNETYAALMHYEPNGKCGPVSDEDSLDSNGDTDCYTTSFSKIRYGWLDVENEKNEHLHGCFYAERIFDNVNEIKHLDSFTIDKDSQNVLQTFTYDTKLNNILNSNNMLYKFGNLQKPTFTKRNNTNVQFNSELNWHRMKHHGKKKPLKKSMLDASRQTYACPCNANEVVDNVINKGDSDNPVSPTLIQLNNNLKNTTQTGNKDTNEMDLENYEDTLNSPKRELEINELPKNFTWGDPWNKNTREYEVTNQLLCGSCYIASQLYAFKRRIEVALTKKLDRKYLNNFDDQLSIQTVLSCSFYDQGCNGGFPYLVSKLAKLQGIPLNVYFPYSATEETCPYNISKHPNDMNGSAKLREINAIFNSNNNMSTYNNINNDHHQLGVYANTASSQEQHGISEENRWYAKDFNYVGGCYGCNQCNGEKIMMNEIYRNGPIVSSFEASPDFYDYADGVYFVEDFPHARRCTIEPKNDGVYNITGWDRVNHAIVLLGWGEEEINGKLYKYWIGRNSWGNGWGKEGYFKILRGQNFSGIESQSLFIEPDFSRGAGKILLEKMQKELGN

The test addresses DPAP1 (Plasmodium falciparum, UniProt Q8IIJ9). The test is described as follows: primary screen, percent inhibition; read by cleavage of a fluorogenic dipeptide substrate; higher = more effect of the substance. More on the design: species or system P. falciparum D10 trophozoite lysates; single well.
Consider `CCc1nc(SC)ncc1C(=O)NCCN1CCN(Cc2ccccc2)CC1`, for which the “% Inhibition @ 10 uM” value is -4.27%. Next, `COc1ccc(-c2nc(S)c3c(n2)Oc2ccccc2C3)cc1`: 4.16%; `CC(C(=O)O)n1c(C(=O)O)c(C=O)c2ccccc21` (centres unmarked): -3.53%. The same measure for `Fc1ccc(C2CCCNc3cc(F)ccc32)cc1` (centres unmarked): -4.75%. On to `C=CCNC(=O)C(=O)NCCc1ccccc1`, for which the “% Inhibition @ 10 uM” value amounted to 6.08%. In the case of `O=C(CCS(=O)(=O)c1ccc2ccccc2c1)N1CCOCC1`, the “% Inhibition @ 10 uM” value is 0.658%.

In the case of `Cc1c(C)n(CC(O)CNCCc2ccccc2)c2ccccc12` (centres unmarked), the “% Inhibition @ 10 uM” value amounted to 5.31%. On to `COc1ccc(N2C(=O)CC(=O)NC2=S)cc1`, for which the “% Inhibition @ 10 uM” value was found to be 0.962%. Next, `Cc1ccc(CNS(=O)(=O)c2c(C)nc(O)nc2O)cc1`: -2.61%; `Cc1ccc(/C=C2\N=C(c3ccc(-c4ccccc4)cc3)OC2=O)o1`: 2.14%. The same measure for `CCc1ccc(CNCc2c(C(=O)O)n(Cc3ccc(OC)cc3)c3cc(OC)ccc23)cc1`: 4.38%; for `C=CCOc1ccc(C(=O)C2=C(O)C(=O)N(CCCN3CCOCC3)C2c2ccccc2F)c(C)c1` (centres unmarked): 1.52%; for `COC(=O)CC1=C(C)C(=O)CC2C(C)(C)CCC[C@]12C` (some centres unmarked): 3.82%. The same measure for `Cc1cc(NC(=O)c2ccc(NC(=O)C(C)(C)C)cc2)no1`: 4.7% and 3.53%; for `COc1ccc(N(CC(=O)N2CCN(C)CC2)S(C)(=O)=O)c(OC)c1`: 3.35%. As for `CCC(C)n1c(SCC(=O)N2CCOCC2)nc2c1c(=O)n(C)c(=O)n2C` (centres unmarked), the “% Inhibition @ 10 uM” value is on record as 5.49%. The same measure for `Cc1ccc(Oc2cc(-n3nc(C)c(C(N)=O)c3N)ncn2)cc1`: -0.795%; for `O=C(Cn1nnc(-c2ccc3c(c2)OCO3)n1)NCc1ccc(F)cc1`: -3.75%; for `Cn1c(-c2ccccc2)cn2cc(-c3cccc(Cl)c3)nc12`: -2.91%. The same measure for `CCOC(=O)C1=C(C)N=C(C)/C(=C(/O)OCC)C1c1ccc(Cl)cc1` (centres unmarked): -2.87%. Turning to `Nc1ccc(S(=O)(=O)Nc2ccc(Nc3ccccc3)cc2)cc1`, the “% Inhibition @ 10 uM” value is 4.08%.

As to `COc1ccc(-c2cc(C(=O)NC(C)C)c3ccccc3n2)cc1OC`, the “% Inhibition @ 10 uM” value came to 9.41%.

On to `CC1CCN(S(=O)(=O)c2ccc3nc(-c4ccccn4)cc(C(=O)NC4CCCC4)c3c2)CC1`, for which the “% Inhibition @ 10 uM” value was -4.53%. Next, `CC(C)OCCCNC(=O)c1ccc(CSc2nc3ccncc3n2Cc2ccccc2)cc1`: 1.41%; `CC1=C(C(=O)Nc2ccccc2)C(c2ccccc2Br)NC(=O)N1` (centres unmarked): 12.8%.

In the case of `CCCN1CCN(CCCNC(=O)C2CCN(S(C)(=O)=O)CC2)CC1`, the “% Inhibition @ 10 uM” value turned out to be 3.66%.

For the compound `Cc1ccc(S(=O)(=O)NCC(c2ccccc2)N(C)C)cc1` (centres unmarked), the “% Inhibition @ 10 uM” value is recorded as 2.73%. As for `CCOc1ccc2nc(N3CCCC(C(=O)NCCOC)C3)sc2c1` (centres unmarked), the “% Inhibition @ 10 uM” value was found to be 1.8%. Regarding `CCC(C)NCc1c(C(=O)O)n(Cc2ccccc2C)c2ccccc12` (centres unmarked), the “% Inhibition @ 10 uM” value is given as -1.44%. The same measure for `CCOc1ccc(NC(=O)c2ccccc2F)cc1`: 18.3%; for `Cc1onc(-c2c(F)cccc2Cl)c1C(=O)N1CCN(C23CC4CC(CC(C4)C2)C3)CC1`: -4.49%; for `c1ccc2c(c1)ncn2CCN1CCOCC1`: -1.56%. Next, `CN(C)c1cnn(C23CC4CC(CC(C4)C2C(=O)O)C3)c(=O)c1Cl` (centres unmarked): 1.15%.

As to `Cn1c(C(=O)NC2CCCCCC2)cc2oc3ccccc3c21`, the “% Inhibition @ 10 uM” value was -0.281%.

`COc1ccc(CC(=O)N(Cc2nc(-c3ccccc3)no2)C2CCCCC2)cc1OC`: the “% Inhibition @ 10 uM” value was -2.99%. The same measure for `COc1ccc(OCc2nn3c(-c4ccccc4OC)nnc3s2)cc1`: -0.45%; for `Cc1nc2c(C)cccc2c(O)c1CC=C(Cl)Cl`: -1.32%. The same measure for `Cc1ccc(S(=O)Cc2ccc(C(=O)NCc3ccc(Cl)cc3)o2)cc1` (centres unmarked): 0.458%; for `Cc1cc(C)nc(/N=C(\N)Nc2ccc(O)cc2)n1`: -0.46%; for `COc1ccc(Br)cc1CNC(=O)CCCc1cn(C)c2ccccc12`: 3.66%.

For `Cc1oc(-c2ccc3c(c2)OCCO3)cc1C(=O)NC(Cc1cc2ccccc2[nH]1)C(=O)O` (centres unmarked), the “% Inhibition @ 10 uM” value came to 17%. The same measure for `CCn1cc(C(=O)O)c(=O)c2cc(F)c(NCC(C)O)c(F)c21` (centres unmarked): -9.37%; for `O=S(=O)(c1ccc2c(c1)Cc1ccccc1-2)N1CCOCC1`: -1.5%; for `CC(C)CSc1nnc2sc3ccccc3n12`: -5.26%. Next, `COc1cccc(C2NC(C(=O)O)CS2)c1O` (centres unmarked): -2.86%; `CCc1nnc(NC(=O)c2ccc(Cc3ccccc3)cc2)s1`: -0.053%. Next, `COc1cc(OC)c(OC)cc1/C=C1\N=C(c2ccco2)OC1=O`: -6.77%. For `c1ccc2c(c1)CCC(NCCc1c[nH]c3ccccc13)C2` (centres unmarked), the “% Inhibition @ 10 uM” value is reported as 1.88%. Next, `COC(=O)c1sc2nc(C)cc(C(F)(F)F)c2c1N`: -5.61%; `Cc1cc(C)n2nc(Cc3ccccc3)c(-c3ccccc3)c2n1`: 1.4%.
